Several values for one entry are separate records, joined by “and”; a condition that tells them apart may be missing. Equal values may be shown once. Screen size: about 16,000 compounds; about 40 (0.2%) were called active. About 1% were inconclusive and are not listed. Calls come from the whole dose curve; as a rule, active = well fitted activation curve with a large enough effect; inconclusive = small, poorly fitted or top-dose-only effect, or another doubt; inactive = no such curve, though single readings can be large or run the other way. Some of the results follow.
Target: Rap guanine nucleotide exchange factor 4 (Homo sapiens) (UniProt Q8WZA2)
Chain of UniProt Q8WZA2 (Q8WZA2 whole entry, looked up): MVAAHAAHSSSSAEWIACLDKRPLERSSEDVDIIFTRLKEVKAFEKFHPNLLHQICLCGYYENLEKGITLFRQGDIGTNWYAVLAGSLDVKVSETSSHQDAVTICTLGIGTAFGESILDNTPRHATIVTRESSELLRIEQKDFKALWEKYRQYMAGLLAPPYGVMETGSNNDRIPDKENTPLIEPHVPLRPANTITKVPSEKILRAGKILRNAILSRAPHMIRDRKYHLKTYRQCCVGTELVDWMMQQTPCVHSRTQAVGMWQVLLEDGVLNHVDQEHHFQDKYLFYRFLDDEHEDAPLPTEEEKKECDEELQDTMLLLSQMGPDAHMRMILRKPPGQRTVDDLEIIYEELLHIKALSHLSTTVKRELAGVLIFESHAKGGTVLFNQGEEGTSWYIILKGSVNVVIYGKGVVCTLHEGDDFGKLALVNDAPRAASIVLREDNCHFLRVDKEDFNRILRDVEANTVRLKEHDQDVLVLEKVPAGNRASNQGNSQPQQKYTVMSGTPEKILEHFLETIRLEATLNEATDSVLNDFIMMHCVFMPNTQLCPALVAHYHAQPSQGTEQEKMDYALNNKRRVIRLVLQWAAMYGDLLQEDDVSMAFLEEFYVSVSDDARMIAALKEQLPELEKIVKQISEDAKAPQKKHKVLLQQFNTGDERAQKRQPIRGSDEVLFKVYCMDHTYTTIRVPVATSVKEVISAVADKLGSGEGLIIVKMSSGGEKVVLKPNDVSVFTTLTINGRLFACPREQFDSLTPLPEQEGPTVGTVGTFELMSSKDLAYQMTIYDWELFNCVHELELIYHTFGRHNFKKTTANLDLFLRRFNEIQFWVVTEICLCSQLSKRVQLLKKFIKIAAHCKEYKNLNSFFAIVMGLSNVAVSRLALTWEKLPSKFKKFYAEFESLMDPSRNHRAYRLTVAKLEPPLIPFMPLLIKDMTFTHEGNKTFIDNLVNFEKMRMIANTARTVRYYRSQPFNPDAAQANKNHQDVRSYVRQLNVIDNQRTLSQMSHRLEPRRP
Assay: Validation qHTS for agonist of cAMP-regulated guanine nucleotide exchange factor 4 (EPAC2);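 note: exchange makes BODIPY-GDP fluorescence drop when released from Rap1B; series mostly up to about 150 µM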
Details: EPAC2 Rap1B BODIPY-GDP exchange, fluorescence; activation: active compounds read high
In short: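 Fluorescent exchange assay: 100 nM EPAC2 with 250 nM RAP1B-BODIPY-GDP and 50 uM GDP; compound added, 5 min at room temperature, then read (ex 480/em 540 nm) every 5 min for 30 min. Normalized to 6.5 mM cAMP agonist control.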
% is set by controls: 0 for no effect and ±100 for the full control effect.

activation, inactive:
CSc1nccc(-c2cc(Cl)c3c(c2)CC(CNC(=O)c2ccc(C)nc2)O3)n1 (stereo not given) -16.6%, CN(C)c1ccc(-c2cncnc2NCCc2cnc[nH]2)cc1 6.52%, COc1cccc(OC)c1OCCNC[C@@H]1COc2ccccc2O1 -15.5%, COc1ccc(Oc2ncc3nc(-c4ccccc4)c(=O)n(C4CC4)c3n2)cc1 -3.64%, CC(Cc1cccc(C(F)(F)F)c1)NCCOC(=O)c1ccccc1 (stereo not given) -27.2%, Cc1cc(C(=O)O)ccc1[C@H](N)C(=O)O -12.3%, COc1cccc(Cn2c(=O)c(-c3ccccc3)nc3cnc(OC)nc32)c1 2.52%, CCCCC/C=C\C/C=C\C/C=C\C/C=C\CCCCCC(=O)O -10.9%, O=C(/C=C/c1ccc(O)c(O)c1)OC(Cc1ccc(O)c(O)c1)C(=O)O (stereo not given) -6.27% and 10.4%, COc1ccccc1-c1ccc2ncnc(NCc3cccnc3)c2c1 -18%, CN1CCC(=C2c3ccccc3C=Cc3ccccc32)CC1 -11% and -2.27% and -28.7%, FC(F)(F)c1ccccc1-c1cc(NCc2cccs2)ncn1 -2%, COCC(=O)N1CCC[C@@]2(CCN(C(c3ccccc3)c3ccccc3)C2)C1 -20.7%, NCC(O)C1CCCCCCC1 (stereo not given) -5.69%, CC(C)c1c(C(=O)N2CCN(CCO)CC2)cnn1-c1nccc(-c2cccs2)n1 4.19%, Cc1noc(C)c1C(=O)N1CCC[C@@]2(CCN(Cc3cc(C(F)(F)F)cc(C(F)(F)F)c3)C2)C1 -35.3%, O=S1(=O)CCOC[C@H](CC2CCCCC2)N1Cc1ccc(Cl)cc1 4.49%, COC(=O)[C@@H](N)CSC/C=C(\C)CC/C=C(\C)CCC=C(C)C -26.7%, O=c1c(-c2cccs2)nc2cncnc2n1Cc1ccc(F)cc1 -3.43%, COc1ccc2c(=O)c(OC)c(-c3ccccc3)oc2c1 -8.66%, C=CCN1C[C@H](C(=O)N(CCCN(C)C)C(=O)NCC)C[C@@H]2c3cccc4[nH]cc(c34)C[C@H]21 17.3%, CCCCCCCCCCCCC/C=C/[C@@H](O)[C@H](CO)NC(=O)CCCCCCC -5.81%, O=S1(=O)CCO[C@H]2CCCC[C@@H]2N1Cc1ccc(Cl)cc1 -30.6%, COC(=O)[C@H](Cc1ccccc1)N(Cc1ccc(C)cc1)S(C)(=O)=O -0.116%, COc1ccc(-c2cc(=O)c3ccccc3o2)cc1 -9.34%, COc1ccc(-n2c(=O)c(-c3ccccc3)nc3cnc(N4CCNCC4)nc32)cc1 -7.48%, CCOC(=O)C1=C(C)NC(C)=C(C(=O)OC)[C@H]1c1cccc([N+](=O)[O-])c1 -10.1%, CN1CCN(c2ncc3nc(-c4cccs4)c(=O)n(C[C@H]4CCCO4)c3n2)CC1 -46.2%, Cc1cc(-c2ccc(N=Nc3ccc4c(S(=O)(=O)O)cc(S(=O)(=O)O)c(N)c4c3O)c(C)c2)ccc1N=Nc1ccc2c(S(=O)(=O)O)cc(S(=O)(=O)O)c(N)c2c1O -11% and -22.1% and -18.9%, Cc1cc(C)cc(C(=O)C[n+]2cccc(Br)c2)c1 -4.26%, CCNc1ncc2nc(-c3ccc(OC)cc3)c(=O)n(C[C@H]3CCCO3)c2n1 -3.92%, O=C(c1cnccn1)N1CCC2(CCCN(c3ccncc3)C2)CC1 -5.98%, COc1ccc2c(c1OC)C(Cc1ccccc1)N1CCc3cc4c(cc3C1=C2)OCO4 (stereo not given) -1.39%, CC(C)(C=O)Cc1cc(C(C)(C)C)c(O)c(C(C)(C)C)c1 -8.72% and -13.8%, CN(C)c1ccc(/C=C/c2ccnc3ccc(F)cc23)cc1 -16.6%, CC(C)(CO)[C@@H](O)C(=O)NCCC(=O)NCCSSCCNC(=O)CCNC(=O)[C@H](O)C(C)(C)CO 1.45%, COC(=O)c1c(OCC2CCCN(C)C2)cc(=O)n2c1CCN(Cc1ccc(OC)c(O)c1)CC2 (stereo not given) -17.4%, O=C(Nc1cccc(F)c1)N1CC2(CCN(C(=O)c3cnccn3)CC2)C1 7.07%, O=C(NC[C@@H]1CCCN2CCCC[C@H]12)c1cnn(-c2nccc(-c3cc4ccccc4o3)n2)c1C1CC1 -10.2%, COC1=C[C@@H](C)C2CC3OC(=O)C[C@H]4C(C)=C(OC)C(=O)C([C@@]2(C)C1=O)[C@@]34C (stereo not given in full) 1.25%, COC(=O)CC1C(C)(C)C(OC(C)=O)C2CC3=C4CC(=O)OC(c5ccoc5)[C@]4(C)CCC3[C@@]1(C)C2=O (stereo not given in full) -12.7%, CS(=O)(=O)Nc1cccc(-c2ccc3ncnc(Nc4ccc(F)cc4)c3c2)c1 -3.79%, CC(=O)[C@H]1CCC2C3CC=C4C[C@@H](OS(=O)(=O)O)CC[C@]4(C)C3CC[C@@]21C (stereo not given in full) 19.6%, COc1ccccc1-c1nc(NCc2cccs2)c2ccccc2n1 -11.5%, O=C1C[C@@H]2c3c(cccc3CN1Cc1ccccc1Br)C[C@@H](O)[C@H]2O -17.7%, COc1ccc(-c2nc3cnc(N4CCOCC4)nc3n(-c3ccccc3)c2=O)cc1 1.46%, COc1ccc(CN(C)CCn2cc(C(=O)N3CCSCC3)nn2)cc1C -13.3%, C=C1C(=CC=C2CCC[C@@]3(C)[C@@H]2CC[C@H]3[C@H](C)CCCC(C)C)C[C@@H](O)C[C@@H]1O -69.8%, c1cncc(-c2cc(-n3ccnc3)ncn2)c1 6.2%, CNC1CCCN(c2c(F)cc3c(=O)c(C(=O)O)cn(C4CC4)c3c2OC)C1 (stereo not given) -16.7%, CC(=O)c1ccc(C(=O)N2CCc3c(cnc(C)c3CNC(=O)c3ccc4c(c3)OCO4)C2)s1 3.79%, CC(CN(C)C)CN1c2ccccc2S(=O)(=O)c2ccccc21 (stereo not given) -6.28%, CC(C)CN1CCC(=O)N([C@H](COc2ccccc2)Cc2ccccc2)CC1 -31.4%, COc1ccccc1-c1nc(NCc2cnc(C)cn2)c2ccccc2n1 -13.1%, C=C[C@@H](C)N(Cc1ccc(OC)cc1)S(=O)(=O)N(Cc1ccccc1)[C@H](C=C)C(C)C -15.6%, CC1OC(OC2C(CO)OC(OC3C(CO)OC(O)C(O)C3O)C(O)C2O)C(O)C(O)C1NC1C=C(CO)C(O)C(O)C1O (stereo not given) -10.7%, COc1ccc2[nH]cc(CCNc3ncnc4ccc(-c5ccccc5OC)cc34)c2c1 4.26%, COc1cccc(-c2nc(NCCNC(C)=O)c3ccccc3n2)c1 6.43%, COc1ccccc1CNc1ncnc2ccc(-c3cccc(NS(C)(=O)=O)c3)cc12 1.44%, Oc1ccc(/C=C\c2cc(O)cc(O)c2)cc1 -10.8%, COc1cccc(Nc2ncc3nc(-c4cccs4)c(=O)n(Cc4cccs4)c3n2)c1 -35%, CCCCCCCCCCCCCCCC(=O)O[C@H](CC(=O)O)C[N+](C)(C)C -39.9%, CCCOC(C(=O)OC1CCN(C)CC1)(c1ccccc1)c1ccccc1 -35.6%, CC1(C)CC[C@]2(C(=O)O)CC[C@@]3(C)C(=CCC4[C@@]5(C)CCC(O)C(C)(C)C5CC[C@@]43C)C2C1 (stereo not given in full) -12.2%, COc1cccc(Cn2c(=O)c(-c3ccc(Cl)cc3)nc3cnc(N4CCN(C)CC4)nc32)c1 -1.97%, CCCCCC1C(=O)CCC1CC(=O)OC (stereo not given) -15.5%, Cn1cccc1C(=O)N1CCC[C@@]2(CCN(C(=O)Nc3cccc(F)c3)C2)C1 -12.4%, N#Cc1ccc(CN2CC3(CCN(C(=O)c4ccco4)CC3)C2)cc1 -6.98%, C=C(CC)C(=O)c1ccc(OCC(=O)O)c(Cl)c1Cl 8.22% and -29.4%, Cc1cnc(SCC2CCCO2)nc1C1CCCN(Cc2cc3c(cc2Cl)OCO3)C1 (stereo not given) -5.62%, OCCCNCc1cc2cc3c(cc2nc1N1CCN(c2cccc(Cl)c2)CC1)OCO3 -2.89%, OC[C@H]1O[C@@H](O[C@@H]2[C@@H](CO)O[C@](O)(CO)[C@H]2O)[C@H](O)[C@@H](O)[C@H]1O -6.7% and -5.84%, CCCCCCOC(=O)C1(O)CC2OC1(C)n1c3ccccc3c3c4c(c5c6ccccc6n2c5c31)C(=O)NC4 (stereo not given) 6.87%, CCCC[C@@]1(C2CCCC2)Cc2cc(OCC(=O)O)c(Cl)c(Cl)c2C1=O -31.1%, Nc1ccc(S(=O)(=O)NC(=O)c2ccccc2)cc1 -1.75% and 6.35%, COc1cc2c(cc1OC)C1CC(=O)C(CC(C)C)CN1CC2 (stereo not given) -27.6%, O=C(c1cc(C(F)(F)F)cc(C(F)(F)F)c1)N1CCC2(CC1)CN(Cc1ccncc1)C2 -9.88%, C[N+](C)(C)CCOP(=O)(O)OP(=O)([O-])OC[C@H]1O[C@@H](n2ccc(N)nc2=O)[C@H](O)[C@@H]1O 2.13% and 2.57% and -8.29%, NNC(=O)CP(=O)(c1ccccc1)c1ccccc1 -12.9%, C[C@](N)(Cc1ccc(O)cc1)C(=O)O -6.36% and -2.47%
